# “And” between values parts separate entries of the source, which are not always exact repeats. Identical values can stand only once. Screen size: about 4,800 compounds; about 420 (8.8%) showed an effect of 50% or more. Some of the results follow.
# Test system: Plasmodium falciparum
# Assay: Confirmatory screen in NF54 nanoGlo assay, in single point, at 2uM, 72h
# Format: functional, Erythrocyte
# Conditions: timepoint 72 hour
Compound,% Inhibition [%],% Inhibition (2 µM)
CC(C)OC1CC(Nc2cccc(CO)c2)C1 (stereo not given),2,
COc1ccsc1CNc1ccc2[nH]ncc2c1,7,
Cc1c2c(C(F)(F)F)cc(=O)n(CCC(=O)Nc3ccc4c(c3)OCCO4)c2nn1C,1,
Cc1c(S(=O)(=O)N2CCC(C)(C(=O)NCc3ccc(F)cc3)CC2)cnn1C(F)F,1,
C[C@@H](c1cc(Cl)ccc1Cl)n1nccc1NC(=O)c1ccoc1,-7,
Cc1ccc(Nc2c(-c3ccco3)nc3nc(C)cc(C)n23)cc1,-1,
Cc1ccc(C(=O)N2CCCC23CCC3)nn1,-11,
CS(=O)(=O)CCOc1cccc(NCc2cocn2)c1,-8,
Cc1cc(C(=O)N2CCC3(CCNCC3)CC2)ccc1F,1,
O=C(C[C@H]1CCOC1)Nc1cccc(F)c1,-13,
CS(=O)(=O)n1cnc2cc(F)c(F)cc21,-5,
Cc1ccc(NC(=O)C2CC2c2ccccc2)cc1NC(=O)C1CC1c1ccccc1 (stereo not given),-2,
CCCNCc1cc(Br)ccc1OCC(N)=O,-6,
CC(C)CC[C@@H](CCNCCN(C)C)c1ccc(Cl)cc1,96,
CC(C)NC[C@H]1COCc2nc3ccccc3n21,-15,
O=C(Nc1ccc(-c2nc3cnccc3o2)c(Cl)c1)c1sc2ccccc2c1Cl,-5,
COc1ccc(S(=O)(=O)N[C@H]2CCCc3cn(CC(F)(F)F)nc32)cc1,11,
Clc1ccc(C[n+]2ccc(-c3nc4ccccc4o3)cc2)c(Cl)c1,58,
COc1ccc(C(=O)N2CCCn3cc(-c4ccccc4F)nc32)cn1,1,
CNC(=O)c1cc(N2CCN(c3ncc(C(F)(F)F)cc3Cl)CC2)ccc1NC(=O)c1ccccc1Cl,7,
Cn1ncnc1CNc1cccc(Cl)c1Br,5,
COCc1cc(F)ccc1NC(=O)NC1CCN(c2cc(C)nc(C)n2)CC1,-5,

Compound,% Inhibition [%],% Inhibition (2 µM)
Cc1ccc(C2c3ccsc3CCN2CCC(=O)N2CCN(C(=O)Cc3cccs3)C(C)C2)cc1 (stereo not given),37,
O=C(Nc1ccccc1N1CCOCC1)[C@@H]1CC=CCC1,-10,
Cc1ccn2c(CN3CCN([C@H]4CCN(Cc5ccccc5)C4)CC3)c(C)nc2c1,8,
COc1cccc(-c2nc(C)c(C(=O)Nc3n[nH]c(CC(C)C)n3)s2)c1,,78% and 70%
O=C(NC1=NN2C(=NC(c3ccc(Cl)cc3)=C[C@H]2c2ccc(F)cc2)N1)c1ccc(Cl)cc1,32,
CS(=O)(=O)N1CC[C@H](CC(=O)N2CCN(c3ccc(F)cc3)CC2)C1,-14,
COc1ccc(C(C)(C)C(=O)N(C)Cc2cn(C)nc2C(C)C)cc1,-2,
Cc1cc(NCc2noc(-c3ccsc3)n2)ccc1C(N)=O,2,
N#Cc1ccc2c(c1)N(Cc1ccccc1F)C(=O)[C@@H]1CCCN21,-7,
Cc1cc(Cn2cc(C(c3ccccc3)c3ccccc3)nn2)no1,-3,
Cc1ccc(CNC(=O)[C@@H](C)C2CCOCC2)cc1C,-8,
CCOCc1nc(-c2ccc(=O)n(C)c2)no1,-1,
CC1CN(CCCNC(=O)Cc2c[nH]c3ccc(F)cc23)CC(C)O1 (stereo not given),-1,
CCc1c([C@H](C)S(=O)(=O)c2ccccc2)[nH]c(=O)n1C(C)(C)C,-20,
O=C(c1nccnc1-c1nc2ccccc2s1)N1CCc2sccc2C1,-10,
Cc1ccccc1Nc1c(-c2c[nH]c3ccccc23)nc2ncccn12,1,
CN([C@H]1CCc2nn(CC3CC3)c(=O)n2CC1)S(=O)(=O)c1ccccc1C(F)(F)F,-8,
CN(CC(F)(F)F)C(=O)CNC(=O)c1cc(F)cc(Cl)c1O,-2,
COc1cc(C=C(C(=O)Nc2ccccc2F)C(=O)Nc2ccccc2F)ccc1OCC(=O)Nc1cccc(C(F)(F)F)c1,-13,
CS(=O)(=O)N(CCCC(=O)N1CC(=O)Nc2ccccc21)c1cc(Cl)ccc1Cl,5,
COc1ccc2[nH]c3c(c2c1)CC(C(=O)O)NC3c1ccc(OC)c(CN2CCN(c3ccccc3F)CC2)c1 (stereo not given),76,
CC1COCCC1NCc1ncn(Cc2cccc(F)c2)n1 (stereo not given),-4,

Compound,% Inhibition [%],% Inhibition (2 µM)
Cc1cccc(NC(=O)c2c(C)sc3ncnc(N4CCCCC4)c23)c1C,10,
Cc1noc2c1N=C(c1ccc(F)cc1)C[C@@H](c1ccc(F)cc1)C2,1,
O=C(NC1CC1)N[C@H]1CCN(C(=O)C(C2CCC2)C2CCC2)C1,-2,
COc1ccc(CCn2cc(C(N)=O)c(-c3ccccc3)n2)cc1,-12,
Cc1nn(C)cc1[C@@H]1CC(=O)Nc2c1cnn2C(C)(C)C,-14,
O=C(C[C@H]1CCC(=O)N(Cc2ccccc2)CC1)NC1CCN(Cc2ccccc2)CC1,-1,
O=C(C[C@@H]1NC(=O)c2ccccc2NC1=O)NCc1ccc(Cl)cc1Cl,-11,
CCCN(C(=O)c1nccnc1N)C1CC(OCC)C12CCCC2 (stereo not given),-3,
CCOc1ccc(-[n+]2cc(-c3ccccc3)n3c2CCC3)cc1,80,
O=C1CCc2cc(N[C@@H](C(=O)N3CCCC3)c3ccccc3)ccc2N1,-1,
COC(=O)c1cc(NC(=O)N2CCO[C@H](C(=O)OC)C2)c(F)cc1F,-2,
Cc1cc(CNC(=O)c2csc(=O)[nH]2)n(C)n1,9,
Cc1ccc(-n2nnnc2-c2cnc3cc4c(cc3c2C)OCO4)cc1,-17,
CC[C@@](C)(C(=O)NC1CCCC1)N(Cc1ccco1)C(=O)c1ccc2c(c1)OCO2,-12,
COc1ccc(NC(=O)C2=Cc3cc(Cl)cc(OC)c3OC=C2)cc1,4,
COc1ccc(NC(=O)Cn2cnc3nc(N4CCOCC4)ncc3c2=O)cc1,6,
COc1ccc(CC[C@](C)(O)c2cc(C(N)=O)no2)cc1,-9,
Cc1cc(F)c(C(=O)OCc2ccc3[nH]nnc3c2)cc1F,-2,
CN(C)c1nc(N)cc(-c2cccc3cccnc23)n1,44,
FC(F)(F)c1cnc(N2CCOC3(CCOCC3)CC2)s1,-2,
CC[C@H]1c2cccn2CCN1C(=O)CCc1cscn1,-19,

# Source: ChEMBL document CHEMBL4888484, “Replenishing the malaria drug discovery pipeline: Screening and hit evaluation of the MMV Hit Generation Library 1 (HGL1) against asexual blood stage Plasmodium falciparum ,using a nano luciferase reporter read-out” (2022)
